From the supplement of paper PMC12217912
Some of the results follow. The full chains were built here from the parent and the listed change. Values near 0.05 are background.

B1: TEV protease; numbered along this chain (parent)
chain: MGESLFKGPRDYNPISSSICHLTNESDGHTTSLYGIGFGPFIITNKHLFRRNNGTLVVQSLHGVFKVKDTTTLQQHLVDGRDMIIIRMPKDFPPFPQKLKFREPQREERICLVTTNFQTKSMSSMVSDTSCTFPSGDGIFWKHWIQTKDGQCGSPLVSTRDGFIVGIHSASNFTNTNNYFTSVPKNFMELLTNQEAQQWVSGWRLNADSVLWGGHKVFMVKPEEPFQPVKEATQL

Variants of: B1
Test: raw area under fraction-flipped curve 0-4 h after induction (AUC4h, not background-subtracted), DNA-recorder readout of cleavage of the substrate (dimensionless); higher = more cleavage of the substrate by the protease variant
Conditions: temperature: 34 °C; time window: 0-4 h after rhamnose induction
Experimental: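 In vivo DNA recorder in E. coli TOP10(DE3) ΔrhaA at 34 °C. Each TEVp single-site mutant (parent TEVp 0) is paired with a single-site variant of the 7-mer TEVs (canonical ENLYFQ|S). The substrate sits between flexible linkers in a Bxb1-sfGFP-TEVs-SsrA fusion, so cleavage stabilises Bxb1 and speeds flipping of a recombination array, read by NGS. The value is the raw area under the fraction-flipped curve over 0-4 h after rhamnose induction (AUC4h), with ≥20 reads per time point. It is not background-subtracted; inactive controls average about 0.047.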
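Also: Bxb1 expression induced with 0.2% (w/v) L-rhamnose at OD600 near 0.5, cultures sampled hourly, flipped fraction per protease–substrate barcode pair counted by paired-end Illumina sequencing.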

Row | Variant | area with substrate ENLYCQS | area with substrate ENLYGQS | area with substrate ENLYHQS | area with substrate ENLYNQS | area with substrate ENLYPQS | area with substrate ENLYVQS | area with substrate ENLYWQS | area with substrate ENLYIQS | area with substrate ENLYKQS | area with substrate ENLYQQS | area with substrate ENLYRQS | area with substrate ENLYSQS | area with substrate ENLYDQS | area with substrate ENLYEQS | area with substrate ENLYMQS | area with substrate ENLYYQS | area with substrate ENLYLQS | area with substrate ENLYTQS | area with substrate ENLYAQS
1 | F140A | 0.0436 | 0.0858 | 0.0699 | 0.0636 | 0.048 | 0.0665 | 0.0634 |  |  |  |  |  |  |  |  |  |  |  | 
2 | N175M | 0.0747 |  | 0.0718 | 0.061 | 0.0523 |  | 0.0678 | 0.101 | 0.0807 | 0.061 | 0.0747 | 0.0497 |  |  |  |  |  |  | 
3 | N175P | 0.0675 |  |  | 0.0608 |  |  |  | 0.0769 | 0.0532 | 0.0507 | 0.0353 |  | 0.0509 | 0.0515 | 0.0612 | 0.0595 |  |  | 
4 | G28A | 0.0557 | 0.0579 | 0.0627 | 0.0683 | 0.0627 | 0.153 | 0.0594 |  | 0.0514 |  | 0.0701 | 0.0868 | 0.0583 | 0.0528 | 0.0623 | 0.055 | 0.0787 |  | 
5 | G213M | 0.0538 | 0.055 | 0.0606 | 0.0588 | 0.0633 | 0.0033 | 0.0558 | 0.0866 |  | 0.0402 | 0.0405 | 0.0699 | 0.0829 | 0.0569 | 0.0712 | 0.0515 |  | 0.0494 | 
6 | S127Y | 0.0935 |  | 0.0656 | 0.067 | 0.0747 | 0.148 | 0.0979 | 0.126 | 0.0603 |  |  |  | 0.0466 | 0.0635 |  |  |  |  | 
7 | K230L |  | 0.0691 | 0.0647 |  | 0.0643 |  | 0.0742 | 0.117 |  | 0.0525 | 0.0496 | 0.0625 |  | 0.0678 | 0.0851 | 0.0383 | 0.0787 |  | 0.0662
8 | C131T | 0.107 |  | 0.0892 | 0.0812 | 0.0884 | 0.136 | 0.0615 | 0.124 | 0.0556 | 0.0803 | 0.0748 | 0.0693 | 0.0577 | 0.0938 |  |  | 0.0932 |  | 
9 | K185E | 0.115 | 0.0641 | 0.0696 | 0.0583 | 0.0701 | 0.145 | 0.0947 | 0.151 | 0.0306 | 0.0693 | 0.0681 | 0.107 | 0.0389 | 0.0746 | 0.126 | 0.041 |  | 0.0845 | 
10 | K185I | 0.108 | 0.0651 | 0.0655 | 0.0633 | 0.0733 |  | 0.0884 | 0.131 | 0.0559 | 0.0646 |  |  |  | 0.0697 |  |  |  |  | 
11 | S201I | 0.0927 | 0.0649 | 0.0722 | 0.0558 | 0.0676 | 0.0981 | 0.0834 | 0.114 | 0.0431 |  | 0.0629 | 0.0868 | 0.0455 | 0.0599 | 0.0772 | 0.0615 | 0.0725 | 0.0567 | 
12 | Q151P | 0.0662 | 0.0671 | 0.0545 | 0.0823 | 0.0699 | 0.0751 |  | 0.0398 | 0.0102 |  |  |  | 0.0635 | 0.0485 |  | 0.0467 | 0.0451 |  | 
13 | Q151L | 0.0606 | 0.071 | 0.0615 | 0.0791 | 0.0694 | 0.095 | 0.0715 | 0.119 | 0.0359 | 0.062 | 0.0695 | 0.0724 |  | 0.0609 |  | 0.0595 |  | 0.0666 | 
14 | N193I | 0.087 | 0.0484 | 0.0802 | 0.116 | 0.0728 |  | 0.0834 | 0.116 | 0.0459 |  | 0.0668 | 0.0655 | 0.0787 |  | 0.0802 |  |  |  | 
15 | F187H | 0.063 | 0.0338 | 0.0525 | 0.0627 | 0.0781 | 0.07 | 0.069 | 0.0619 | 0.0709 |  | 0.0587 | 0.059 | 0.0724 | 0.0649 | 0.111 |  |  | 0.0619 | 
16 | H47S | 0.0567 |  | 0.0598 | 0.061 | 0.0449 | 0.0602 | 0.0555 | 0.0536 | 0.064 |  | 0.0655 | 0.0563 | 0.0578 |  |  |  | 0.0464 |  | 
17 | C111I | 0.086 |  | 0.0712 | 0.0762 | 0.0683 |  | 0.0769 | 0.118 | 0.065 | 0.0681 | 0.0578 | 0.0706 | 0.0701 | 0.0605 | 0.0837 |  | 0.0658 | 0.0675 | 
18 | K68L | 0.0768 | 0.0577 | 0.0682 | 0.063 |  | 0.107 | 0.0699 |  |  |  | 0.0517 | 0.0403 | 0.0686 | 0.0735 | 0.0803 |  | 0.0829 |  | 
19 | I19F | 0.0693 | 0.0587 | 0.0631 | 0.0634 | 0.0633 | 0.0649 | 0.0513 | 0.0783 | 0.0621 | 0.0593 | 0.0604 |  | 0.0983 | 0.0492 | 0.064 | 0.0646 |  | 0.0633 | 
20 | K221D | 0.0904 | 0.0683 | 0.0606 | 0.0704 |  | 0.103 |  |  | 0.0463 | 0.0583 | 0.0607 | 0.0955 | 0.0595 | 0.0553 |  | 0.0608 |  | 0.074 | 
21 | L211V | 0.0679 |  |  |  |  | 0.124 | 0.0528 | 0.114 | 0.0758 |  |  |  | 0.063 | 0.0698 | 0.0843 |  |  |  | 
22 | R102W | 0.0569 | 0.0466 | 0.0674 | 0.0476 | 0.0439 | 0.0016 | 0.0468 |  | 0.0358 | 0.0463 | 0.0367 | 0.0382 | 0.0497 | 0.0379 |  | 0.0343 | 0.0255 |  | 
23 | A207E | 0.0961 | 0.0808 | 0.077 | 0.0698 |  |  | 0.122 |  | 0.0854 | 0.0618 |  |  | 0.0594 | 0.0613 |  |  |  |  | 
24 | C20D | 0.0492 | 0.0432 | 0.0473 | 0.0476 | 0.0506 | 0.0415 | 0.0254 |  |  | 0.0491 | 0.0476 | 0.0482 |  | 0.0194 | 0.0559 |  |  |  | 
25 | T114P | 0.023 | 0.0704 | 0.0664 | 0.0625 | 0.0579 | 0.0738 | 0.0516 | 0.0858 |  | 0.0509 |  |  | 0.0507 | 0.0669 | 0.0591 |  |  | 0.0565 | 
26 | R204W | 0.0973 | 0.0713 | 0.0713 | 0.0718 | 0.0874 | 0.12 | 0.0724 | 0.168 | 0.057 | 0.0651 | 0.0579 | 0.0739 | 0.0336 | 0.0681 | 0.0871 | 0.0253 | 0.116 | 0.0804 | 
27 | F226A | 0.0547 |  | 0.0785 | 0.0489 | 0.0666 | 0.141 |  |  |  |  | 0.0659 |  | 0.0243 |  | 0.0888 |  |  |  | 
